{"source": "patent US20220378889A1", "about": "“NEO-EPITOPE VACCINES AND METHODS OF TREATING CANCER” (Epivax Therapeutics Inc., priority 2019, published 2022)", "system": "CT26 tumor cells", "assay": "CT26 tumor growth and survival after vaccination (Example 1)", "conditions": "sc injections at days 5, 8, 12, 15, 19, 22, 26; N=10 mice", "data": [{"substance": "poly-ICLC", "values": [{"measurement": "tumor burden compared to Group 1 (mice immunized with PBS)", "value": "no reduction in tumor burden"}]}]}
